Laboratory results reported in the BET-seq Pho4 binding data (Le et al. 2018).
Some of the results follow. These are noisy estimates, calculated here from bound and input reads.

biological target: T1, Pho4 (S. cerevisiae) (UniProt P07270); assay: relative binding free energy (BET-seq); higher = weaker binding; details: reference: library average
T1 sequence: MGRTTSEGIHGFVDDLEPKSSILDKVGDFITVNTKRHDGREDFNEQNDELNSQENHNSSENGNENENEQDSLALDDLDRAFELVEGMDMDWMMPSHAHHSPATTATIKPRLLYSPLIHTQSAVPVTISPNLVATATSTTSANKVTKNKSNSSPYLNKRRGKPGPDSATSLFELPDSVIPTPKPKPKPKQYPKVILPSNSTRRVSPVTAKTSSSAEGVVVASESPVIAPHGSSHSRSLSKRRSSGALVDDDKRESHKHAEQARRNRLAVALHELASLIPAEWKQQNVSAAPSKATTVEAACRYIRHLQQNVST

Sequence | relative binding free energy [kcal/mol]
TGGGGCACGTGCATTG | -0.13
TTGAACACGTGATTGT | 0.24
GTGAGCACGTGATTTG | 0.12
CTAGGCACGTGAGGTA | 0.04
GGAATCACGTGAGCGT | 0.39
GGCTGCACGTGGTAGG | -0.04
TTTGGCACGTGGGGAC | -0.15
ATCATCACGTGATTGT | 0.22
TGCATCACGTGGAATT | 0.41
GGAATCACGTGAGTTT | 0.22
GTGTCCACGTGCGGAG | 0.05
GTCTTCACGTGCATGG | 0.31
GTGGCCACGTGTGTGC | 0.04
GGTGGCACGTGAAAGG | 0.29
TGTGACACGTGGAATT | 0.19
TTGTTCACGTGGACTA | 0.15
ATAGTCACGTGTAGGA | 0.1
TAGGGCACGTGTCGCG | -0.25
TTCAGCACGTGGGTAA | -0.2
TGAGGCACGTGCTTGG | -0.21
CTGGGCACGTGAATGT | 0.25
TGCAGCACGTGTTAGG | -0.02
GATGTCACGTGATTGG | 0.28
GGCTGCACGTGGATTA | 0.21
TGTTTCACGTGGCGTC | 0.22
GGGGTCACGTGGTGAG | 0.2

Sequence | relative binding free energy [kcal/mol]
TGTTACACGTGCTGAT | 0.04
GTGATCACGTGATTTG | 0.3
AGGGTCACGTGGTGAT | 0.04
TCAGTCACGTGTGAGG | 0.14
GTGTCCACGTGTGCGG | -0.03
TAAGCCACGTGGTTGA | 0.03
CTTGGCACGTGGACTG | -0.09
GGGCACACGTGGGATA | -0.03
TATGGCACGTGTTTAT | -0.05
CTTAGCACGTGAGGAT | 0.24
TTCATCACGTGGGTTA | -0.04
TCGAGCACGTGGGTGC | -0.14
AATTTCACGTGGGTTT | 0.25
AGTATCACGTGTGGTG | 0.18
AGCGGCACGTGGTTCG | -0.18
AAATGCACGTGGCGTT | 0.01
TCAGTCACGTGTGGCT | 0.02
ATTGGCACGTGGATGC | 0.07
TTTTGCACGTGAAATA | 0.51
CAAGGCACGTGGCGGG | -0.31
AGTGCCACGTGGAGAT | -0.14
GTATGCACGTGATTAG | 0.13
TTGAGCACGTGTTAGA | -0.08
GGAGTCACGTGAAGAT | 0.37
GTTGTCACGTGTTTCC | 0.25
AGAGTCACGTGGGAAG | 0.14

Sequence | relative binding free energy [kcal/mol]
TGGAACACGTGCTAGG | 0.06
ATGGGCACGTGGGGCC | -0.3
GTACGCACGTGTTTGT | -0.09
TTTGTCACGTGGTTGC | 0.12
ATCGACACGTGGGAAG | 0.19
GGGTTCACGTGCGCCG | 0.27
AATAACACGTGGGGAG | -0.18
TAGTACACGTGACGGG | 0.24
GACTGCACGTGGGATG | -0.11
CAATGCACGTGGGTTT | -0.09
AGCGTCACGTGGGCAT | -0.1
CGTGCCACGTGTATTG | -0.01
TTTCGCACGTGATTTA | 0.07
TGGTTCACGTGTCAAT | 0.15
CTATCCACGTGGGGTT | -0.08
ATGACCACGTGTGGTT | 0
TTGCTCACGTGTATGT | 0.21
ATATGCACGTGAATGG | 0.2
AGCGGCACGTGAGGGG | 0.07
CAATTCACGTGGTTGT | 0.18
ATGGTCACGTGGCCTT | -0.03
GCGTGCACGTGATGTG | 0.21
GGTTACACGTGGGAAT | 0.06
TCTTGCACGTGAGGTA | 0.18
CAGGTCACGTGCGAGG | 0.06
TCTTGCACGTGTGTTC | -0.02

Sequence | relative binding free energy [kcal/mol]
AGGAGCACGTGTATTT | 0.07
GAGCTCACGTGTGGAG | 0.24
TCGACCACGTGTGGTT | 0.09
TCGCGCACGTGGTGTA | -0.26
GTCGTCACGTGGGATA | 0.03
CAAGTCACGTGGTTTT | -0.09
TAGGGCACGTGATTTT | -0.07
GTAGGCACGTGTGTCG | -0.1
TCGTTCACGTGATTAA | 0.31
ATGTCCACGTGAAGGG | 0.18
GTGTGCACGTGCAATG | -0.12
AGCTACACGTGAGTGG | 0.12
GGTCGCACGTGATGCG | 0.12
TGGGGCACGTGGGTTA | -0.17
AGGTACACGTGTAGGA | 0.11
TAGCTCACGTGAAGTT | 0.53
GTGTGCACGTGAAATG | 0.32
TTGAGCACGTGGGTCG | -0.14
GGTTACACGTGTTTGT | 0.2
TTGTCCACGTGCGTTG | -0.09
GGCTACACGTGTTATT | 0.18
AAGGGCACGTGTTTTA | 0.06
GTGTGCACGTGGTAAC | -0.08
TCGTACACGTGTTTCT | 0.19
TAGTACACGTGTGTTA | 0.13
CTTTTCACGTGAGGGG | 0.39

Sequence | relative binding free energy [kcal/mol]
TGGTGCACGTGACGTT | 0.06
AGCGTCACGTGAGTGA | 0.29
CAGTTCACGTGTTCTG | 0.36
CATGGCACGTGGGTGT | -0.17
CAGGGCACGTGTCAGT | -0.06
TCAAGCACGTGTGTGG | -0.05
CCGGGCACGTGTGGAT | -0.07
AGCTTCACGTGTTTTA | 0.19
CGTTGCACGTGAGTGT | 0.15
TATGTCACGTGTCTGA | 0.1
AATCTCACGTGATTGG | 0.35
TTGATCACGTGGCTCG | 0.22
AACTGCACGTGTGATG | 0.08
CGATGCACGTGGGAAT | 0.04
TATGACACGTGTTAGA | -0.03
TAAGTCACGTGGGGGC | -0.05
GAGTGCACGTGCTTGA | -0.08
TATGGCACGTGGTAGC | -0.22
GTTAACACGTGTATGG | 0.01
CGTGGCACGTGCGGGA | -0.08
TAGTACACGTGGTTCT | -0.04
GTTTGCACGTGCTTAT | -0.17
GGGGGCACGTGGCAGA | -0.23
TGCTTCACGTGAGCGT | 0.29
GGGTGCACGTGTGTGC | -0.03
TACTTCACGTGGGGAA | 0.2

Sequence | relative binding free energy [kcal/mol]
GGTCTCACGTGATGGG | 0.44
GAGGACACGTGAGGGG | 0.31
GGCTGCACGTGGGCGA | -0.12
AAATACACGTGGTATT | -0.03
GAGTGCACGTGGTGTG | -0.07
TAGTTCACGTGGTAGG | 0.25
GGATCCACGTGGAGGG | -0.12
ATTGTCACGTGATTAT | 0.1
GCTTTCACGTGGGCGG | 0.09
TTCGGCACGTGGCGAG | -0.22
CTGTTCACGTGTGAAT | 0.29
ATAATCACGTGTTGTC | -0.01
CAGTTCACGTGTTTGG | 0.17
AGATGCACGTGCTGAG | 0.14
AGATGCACGTGAGGTT | 0.24
AATGTCACGTGCTTAT | -0.02
TGATTCACGTGGGTCG | 0.24
TGTAGCACGTGTTATT | -0.03
TTGGCCACGTGTGCGG | -0.08
AGAAGCACGTGCGGTG | -0.16
GAGAGCACGTGGTGGG | -0.04
TGGTTCACGTGCATTT | 0.26
AGGGTCACGTGTGGTT | 0.18
GTTAGCACGTGGTAAC | -0.05
ATGAACACGTGTAGGC | 0.17
TGTGACACGTGCTTTG | -0.01

Sequence | relative binding free energy [kcal/mol]
AATAGCACGTGGGGTC | -0.24
AGGGACACGTGTGTCT | -0.12
GTGGGCACGTGGTCGC | -0.03
ATTCTCACGTGGGCTT | 0.21
CATGTCACGTGGGACG | 0.07
TTGACCACGTGTGGAG | 0.02
TATTTCACGTGGCTTA | 0.22
GTGACCACGTGTTGTT | -0.1
TTTTACACGTGCTTGA | 0.1
TTCGTCACGTGATAGA | 0.31
CGGTTCACGTGCAGTT | 0.33
AATAGCACGTGTTTGT | -0.11
ATGCGCACGTGGAAGT | -0.09
TGGTACACGTGGAGTT | 0.15
GGGGTCACGTGCCAGT | 0.08
TTAGCCACGTGATTGG | -0.04
CAGGGCACGTGGTTAA | -0.1
TTACGCACGTGATTAG | -0.01
AGCGGCACGTGGAGGT | -0.1
TTAGTCACGTGGGACG | -0.02
ATAAACACGTGTGTAT | -0.15
TATGTCACGTGGATTG | 0.09
TGTCGCACGTGTGTGT | -0.01
TGTGACACGTGATGTA | 0.09
GGTCACACGTGTGTGA | 0.07
TGTTTCACGTGCGATT | 0.31

Sequence | relative binding free energy [kcal/mol]
GGGTTCACGTGCTTTG | 0.37
CGACTCACGTGTGGGT | 0.15
GGTCACACGTGTTTTT | 0.01
TATTTCACGTGTGCTC | 0.28
CGGGGCACGTGGTTAT | -0.26
GTATGCACGTGAGTGG | 0.19
TATTACACGTGTTTGA | 0.02
AATGGCACGTGTGACG | -0.1
TAGGGCACGTGTGCAT | -0.15
AGTGGCACGTGTGCCG | -0.11
GTCTTCACGTGAATGT | 0.42
AGTTACACGTGCGTGT | -0.09
TTCGTCACGTGGAGTT | 0.07
TGCCGCACGTGTGGGG | -0.04
TGTGCCACGTGGGCTT | -0.24
TTAATCACGTGCTTAT | 0.24
ATTTTCACGTGCATGG | 0.26
CTTGTCACGTGGTTGC | 0.05
CATTGCACGTGGTGAG | -0.15
TTTATCACGTGGAGCT | 0.23
AGGGTCACGTGGTATA | -0.02
TTAGGCACGTGTCTCG | -0.02
CGGGTCACGTGCGTAT | 0.08
AGCTGCACGTGTGTAG | -0.08
TAGATCACGTGGTTAT | 0.1
CTTCTCACGTGTAGGT | 0.2

Sequence | relative binding free energy [kcal/mol]
GCGGGCACGTGGTAGC | -0.18
GGTCACACGTGGTAAT | 0.11
TGAGACACGTGTAGAG | 0.07
CGAGACACGTGTGGAG | 0.13
GTTATCACGTGTGCGG | 0.29
TTATGCACGTGTGTAT | -0.04
TTGTCCACGTGGTGCT | -0.05
GTTGGCACGTGGTAGA | 0
TGGTGCACGTGGTGGT | -0.09
TGCAGCACGTGAATTT | 0.35
AGTCGCACGTGGTCTG | -0.24
AAGGGCACGTGGTGTA | -0.19
AACGTCACGTGGTCGG | 0.05
TCTATCACGTGCGGGG | 0.17
TAAGGCACGTGCTATG | -0.11
GTAGGCACGTGCGGCA | -0.04
CATTGCACGTGGGAGG | -0.12
GGTAGCACGTGGGGTC | -0.09
GCTGACACGTGGAGTG | 0.02
GCGTTCACGTGAGATG | 0.26
TGGCGCACGTGCGGTC | -0.03
TTTTGCACGTGATAGG | 0.12
